Experimental data: PubChem BioAssay (NCI)
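96-well plates; 48 h exposure; 5 concentrations. Endpoints by linear interpolation between flanking doses. Not reached: highest tested concentration assigned. GI50: concentration for 50% inhibition of growth. TGI: concentration producing complete growth inhibition.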

System: NCI-H322M lung
Test: growth of human tumour cells (NCI), 48 h

**Q.** Which GI50 does the source give for Cc1ccc(C2CC(c3ccc(NC(=O)Nc4ccccc4)cc3)=NN2c2ccc(S(N)(=O)=O)cc2)cc1 (stereo not given) here?
**A.** 8.4 µM

**Q.** And the TGI?
**A.** 20.7 µM

**Q.** What does the source list for CC(=C(c1ccc(OCCN2CCCCCC2)cc1)c1ccc(OCCN2CCCCCC2)cc1)c1ccc(Cl)cc1?
**A.** GI50: 4.91 µM; TGI: 9.94 µM

**Q.** Which results are given for OCc1[nH]nc2cc(Nc3ncc4ccc(Br)c(OC5CCC(O)CC5)c4n3)ccc12 (stereo not given)?
**A.** GI50: 0.0393 µM; TGI: 2.06 µM

**Q.** Which GI50 does the source give for CN(C)c1nc(NCCNS(=O)(=O)c2ccc(C3=Nc4c(N)nc(N)nc4NC(c4ccc(Cl)cc4)C3)cc2)nc(Nc2ccc(F)cc2)n1 (stereo not given) here?
**A.** > 100 µM

**Q.** And the TGI?
**A.** > 100 µM

**Q.** With O=C(Nc1ccc(Cl)c(C(F)(F)F)c1)c1cncc(C#Cc2cnc3ccc(N4CCOCC4)nn23)c1 as the compound, how does the GI50 read?
**A.** 2.45 µM

**Q.** And the TGI?
**A.** 16.9 µM
